Experimental data published in PubChem BioAssay (Tox21).
Where “and” joins values, the source holds several entries; their conditions need not be identical. Identical values can stand only once. This list was built around the results that the source calls inconclusive (neither active nor inactive); the mix of calls is not that of the screen. For some assays here: Potencies beside an inconclusive call are fits to weak or partial responses and may not hold up. More than one record can exist for a structure, and the calls need not agree. Calls of active or inactive are those of the source. Unless noted, calls follow the shape of the dose curve; as a rule, active = well fitted curve in the direction sought with a large enough effect in the repeat runs; inconclusive = weak or mixed curves; inactive = no such curve, though single readings can be large; an effect the other way counts as inactive or inconclusive.

Assays:
[1] = qHTS assay for identifying genotoxic compounds that show differential cytotoxicity against isogenic chicken DT40 cell lines with known DNA damage response pathways - wild type cell line (AID 743012); details: DT40 wild type chicken cells viability, CellTiter-Glo, 40 h; activity change, negative = cytotoxicity: at 68.4 µM (top of the series) unless noted; also: nearly all actives have a fitted effect of over 60% in size; also: potency is read from the fitted curve at half-maximal effect; as to activity change, negative = cytotoxicity: % is scaled to controls: 0 for no effect and ±100 for the full control effect
Method in brief: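 Viability of DNA repair-proficient chicken DT40 cells was assessed by CellTiter-Glo luminescence following 40 h compound exposure at 37 C/5% CO2.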

[2] = qHTS assay for identifying genotoxic compounds that show differential cytotoxicity against isogenic chicken DT40 cell lines with known DNA damage response pathways - Rev3 mutant cell line (AID 743014); details: chicken DT40 Rev3-/- viability, CellTiter-Glo, 40 h; activity, negative = cytotoxicity: at 68.4 µM (top of the series); also: potency is read from the fitted curve at half-maximal effect; nearly all actives have a fitted effect of over 55% in size
[3] = qHTS assay for identifying genotoxic compounds that show differential cytotoxicity against isogenic chicken DT40 cell lines with known DNA damage response pathways - Rad54/Ku70 mutant cell line (AID 743015); details: DT40 Rad54/Ku70 mutant viability, CellTiter-Glo, 40 h; activity change, negative = cytotoxicity: at 66.8 µM (top of the series); also: nearly all actives have a fitted effect of over 60% in size; also: potency is read from the fitted curve at half-maximal effect
[4] = target: Androgen receptor (Homo sapiens) (UniProt P10275); assay: qHTS assay to identify small molecule antagonists of the androgen receptor (AR) signaling pathway (AID 743035; active = well fitted inhibition curve with a large enough effect in the signal ratio in the repeat runs, not every such curve was filed as active; inconclusive = weak or mixed curves, or effect the other way; inactive = no such curve, though single readings can be large or run the other way; the % refers to the signal ratio; also: potency is read from the fitted curve at half-maximal effect; as to activity change, negative = inhibition: % is scaled to controls: 0 for no effect and ±100 for the full control effect); details: HEK293 AR-UAS-bla, R1881-stimulated, beta-lactamase FRET, 16 h; activity change, negative = inhibition: at 58.5 µM (top of the series) unless noted
Sequence of UniProt P10275 (P10275 whole entry, looked up): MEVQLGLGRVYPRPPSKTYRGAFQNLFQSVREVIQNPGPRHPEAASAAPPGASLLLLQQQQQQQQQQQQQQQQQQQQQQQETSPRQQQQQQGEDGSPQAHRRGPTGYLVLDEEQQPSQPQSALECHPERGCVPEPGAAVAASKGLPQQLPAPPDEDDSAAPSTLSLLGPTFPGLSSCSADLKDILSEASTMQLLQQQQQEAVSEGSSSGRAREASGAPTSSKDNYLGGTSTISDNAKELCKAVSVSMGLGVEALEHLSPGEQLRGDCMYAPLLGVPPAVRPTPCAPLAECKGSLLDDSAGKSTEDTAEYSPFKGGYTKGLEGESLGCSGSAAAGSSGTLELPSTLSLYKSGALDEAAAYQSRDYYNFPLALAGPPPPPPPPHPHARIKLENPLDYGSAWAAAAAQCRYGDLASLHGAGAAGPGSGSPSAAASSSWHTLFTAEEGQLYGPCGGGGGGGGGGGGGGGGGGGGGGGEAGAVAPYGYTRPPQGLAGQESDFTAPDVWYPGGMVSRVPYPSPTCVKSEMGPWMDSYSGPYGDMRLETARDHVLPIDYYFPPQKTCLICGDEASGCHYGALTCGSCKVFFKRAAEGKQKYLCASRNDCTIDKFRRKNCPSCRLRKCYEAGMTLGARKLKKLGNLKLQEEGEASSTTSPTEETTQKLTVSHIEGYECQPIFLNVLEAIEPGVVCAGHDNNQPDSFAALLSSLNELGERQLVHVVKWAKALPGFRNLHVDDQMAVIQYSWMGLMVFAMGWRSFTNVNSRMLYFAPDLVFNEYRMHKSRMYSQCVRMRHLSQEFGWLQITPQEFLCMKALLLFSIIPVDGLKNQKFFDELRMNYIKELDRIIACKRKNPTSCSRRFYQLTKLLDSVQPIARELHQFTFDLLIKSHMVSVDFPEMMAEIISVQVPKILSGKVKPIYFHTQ
Method in brief: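 Reporter HEK293 cells were exposed to compounds and R1881 overnight (16 h, 37C); beta-lactamase activity was then quantified by FRET fluorescence.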

[5] = target: Androgen receptor (Homo sapiens) (UniProt P10275); assay: qHTS assay to identify small molecule agonists of the androgen receptor (AR) signaling pathway (AID 743036; active = well fitted activation curve with a large enough effect in the signal ratio in the repeat runs, with a control signal flat, not every such curve was filed as active; inconclusive = weak or mixed curves, or effect the other way; inactive = no such curve, though single readings can be large or run the other way; the % refers to the signal ratio; also: potency is read from the fitted curve at half-maximal effect); details: HEK293 AR-UAS-bla GripTite, beta-lactamase FRET ratio, 16 h; activation: at 62.4 µM (top of the series) unless noted
Method in brief: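 Cell-based FRET reporter assay: HEK293 line with a UAS-beta-lactamase construct, compounds added in DMSO, 16 h exposure at 37C, then 2 h substrate step at room temperature and fluorescence intensity read.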

[6] = target: Androgen receptor (Homo sapiens) (UniProt P10275); assay: qHTS assay to identify small molecule antagonists of the androgen receptor (AR) signaling pathway using the MDA cell line (AID 743042; also: potency is read from the fitted curve at half-maximal effect; nearly all actives have a fitted effect of over 55% in size)
Method in brief: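 MDA-kb2 cells (human breast carcinoma, stably carrying an MMTV-luciferase reporter responsive to AR and GR) were plated at 3,000 cells/well and preincubated 5 hr at 37C, then given compound plus R1881 agonist for 16 h. ONE-Glo luminescence was read.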

Aromatase (Homo sapiens) = Aromatase (Homo sapiens) (UniProt P11511); assay: qHTS assay to identify aromatase inhibitors (AID 743083); details: MCF-7 aro ERE, testosterone-driven ERE luciferase, 24 h; activity, negative = inhibition: at 70.3 µM (top of the series); also: potency is read from the fitted curve at half-maximal effect; nearly all actives have a fitted effect of over 55% in size
Sequence of UniProt P11511 (P11511 whole entry, looked up): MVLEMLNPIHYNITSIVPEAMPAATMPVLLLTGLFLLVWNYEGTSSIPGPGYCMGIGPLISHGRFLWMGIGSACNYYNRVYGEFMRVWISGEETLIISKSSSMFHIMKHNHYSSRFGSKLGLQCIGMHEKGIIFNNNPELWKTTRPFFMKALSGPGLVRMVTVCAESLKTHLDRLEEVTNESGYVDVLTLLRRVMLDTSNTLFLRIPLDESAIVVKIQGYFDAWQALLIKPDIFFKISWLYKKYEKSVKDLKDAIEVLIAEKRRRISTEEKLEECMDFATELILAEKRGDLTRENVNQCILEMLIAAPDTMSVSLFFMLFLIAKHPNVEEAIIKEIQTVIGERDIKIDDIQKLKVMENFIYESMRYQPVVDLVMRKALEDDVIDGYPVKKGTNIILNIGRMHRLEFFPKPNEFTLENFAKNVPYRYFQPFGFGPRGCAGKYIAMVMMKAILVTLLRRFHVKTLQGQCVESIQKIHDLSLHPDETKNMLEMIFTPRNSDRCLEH

[7] = qHTS assay to identify small molecule antagonists of the thyroid receptor (TR) signaling pathway - cell viability counter screen (AID 743064); details: GH3.TRE-Luc viability, CellTiter-Fluor, 24 h; activity change, negative = cytotoxic: at 70.3 µM (top of the series) unless noted; also: % is scaled to controls: 0 for no effect and ±100 for the full control effect; nearly all actives have a fitted effect of over 50% in size
Method in brief: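 In rat pituitary GH3.TRE-Luc reporter cells co-exposed to compound and 1 nM T3 for 23.5 h, cytotoxicity was assessed with CellTiter-Fluor in the same wells, read by fluorescence.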

[8] = qHTS assay to identify small molecule antagonists of the thyroid receptor (TR) signaling pathway (AID 743065); also: potency is read from the fitted curve at half-maximal effect; nearly all actives have a fitted effect of over 55% in size
Method in brief: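 GH3.TRE-Luc rat pituitary cells carrying two TR response elements driving luciferase were plated for 4 h, given compound plus 1 nM T3 (final), and incubated 23.5 h at 37 C. ONE-Glo luminescence measured reporter inhibition; CellTiter-Fluor fluorescence tracked cytotoxicity.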

[9] = target: Estrogen receptor (Homo sapiens) (UniProt P03372); assay: qHTS assay to identify small molecule antagonists of the estrogen receptor alpha (ER-alpha) signaling pathway (AID 743069; active = well fitted curve in the direction sought with a large enough effect in the signal ratio in the repeat runs, not every such curve was filed as active; inconclusive = weak or mixed curves, or effect the other way; inactive = no such curve, though single readings can be large or run the other way; the % refers to the signal ratio; also: potency is read from the fitted curve at half-maximal effect); details: HEK293 ER-alpha-UAS-bla, beta-lactamase ratio, antagonist mode; activity, negative = inhibition: at 69.4 µM (top of the series) unless noted
Sequence of UniProt P03372 (P03372 whole entry, looked up): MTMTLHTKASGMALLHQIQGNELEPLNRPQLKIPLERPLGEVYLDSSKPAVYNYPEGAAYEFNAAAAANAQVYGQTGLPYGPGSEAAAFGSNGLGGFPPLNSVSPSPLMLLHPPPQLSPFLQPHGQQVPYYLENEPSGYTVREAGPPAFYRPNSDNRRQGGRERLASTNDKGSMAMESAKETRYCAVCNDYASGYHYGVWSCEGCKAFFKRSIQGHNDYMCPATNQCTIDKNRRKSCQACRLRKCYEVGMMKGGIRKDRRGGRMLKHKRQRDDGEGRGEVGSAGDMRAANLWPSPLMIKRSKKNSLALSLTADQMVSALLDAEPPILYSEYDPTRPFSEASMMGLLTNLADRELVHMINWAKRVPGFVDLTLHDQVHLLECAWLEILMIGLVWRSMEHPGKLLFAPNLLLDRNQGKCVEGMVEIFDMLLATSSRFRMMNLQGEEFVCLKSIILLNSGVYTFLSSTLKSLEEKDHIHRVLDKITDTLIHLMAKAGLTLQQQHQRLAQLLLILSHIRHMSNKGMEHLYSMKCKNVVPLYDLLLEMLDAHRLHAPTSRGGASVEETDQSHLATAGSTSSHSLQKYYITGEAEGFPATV
Method in brief: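 Screening used a UAS-driven beta-lactamase reporter integrated into HEK293 cells expressing ER-alpha, stimulated with 17beta-estradiol alongside test compounds over 18 hr at 37C; signal came from LiveBLAzer B/G FRET fluorescence.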

[10] = qHTS assay to identify small molecule antagonists of the estrogen receptor alpha (ER-alpha) signaling pathway - cell viability counter screen (AID 743074; calls by dose curve; also: potency is read from the fitted curve at half-maximal effect; nearly all actives have a fitted effect of over 45% in size)
[11] = target: Estrogen receptor (Homo sapiens) (UniProt P03372); assay: qHTS assay to identify small molecule agonists of the estrogen receptor alpha (ER-alpha) signaling pathway using the BG1 cell line (AID 743079); details: BG1Luc4E2 cells, ERE-luciferase agonist, 22 h; activation: at 70.3 µM (top of the series) unless noted; also: nearly all actives have a fitted effect of over 20% in size; also: potency is read from the fitted curve at half-maximal effect; as to activation: % is scaled to controls: 0 for no effect and ±100 for the full control effect
[12] = qHTS assay to identify small molecule antagonists of the estrogen receptor alpha (ER-alpha) signaling pathway using the BG1 cell line - cell viability counter screen (AID 743081); details: BG1Luc4E2 viability, CellTiter-Fluor, 22 h; activity change, negative = cytotoxicity: at 70.3 µM (top of the series) unless noted;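 also: compound given together with 17beta-estradiol as the ER stimulus; % is scaled to controls: 0 for no effect and ±100 for the full control effect; nearly all actives have a fitted effect of over 45% in size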
[13] = tested on: thyroid hormone receptor (rat, GH3 cells); assay: qHTS assay to identify small molecule agonists of the thyroid receptor (TR) signaling pathway (AID 743066; calls by dose curve; also: % is scaled to controls: 0 for no effect and ±100 for the full control effect); details: GH3.TRE-Luc cells, TR agonist luciferase, 24 h; activation: at 83.9 µM (top of the series) unless noted
[14] = qHTS assay to identify small molecule antagonists of the androgen receptor (AR) signaling pathway using the MDA cell line - cell viability counter screen (AID 743041; also: % is scaled to controls: 0 for no effect and ±100 for the full control effect; nearly all actives have a fitted effect of over 45% in size); details: MDA-kb2 viability, CellTiter-Fluor, 16 h, cells co-treated with R1881 androgen agonist; viability change, negative = cytotoxic: at 70.3 µM (top of the series) unless noted
Method in brief: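 qHTS viability read-out; MDA-kb2 AR-luc; R1881-stimulated; 16 h exposure at 37C, 0% CO2; CellTiter-Fluor, 30 min; fluorescence intensity.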

[15] = qHTS assay to identify small molecule antagonists of the estrogen receptor alpha (ER-alpha) signaling pathway using the BG1 cell line (AID 743080; calls by dose curve;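 also: BG1 cells stimulated with 17beta-estradiol alongside compound; potency is read from the fitted curve at half-maximal effect; nearly all actives have a fitted effect of over 25% in size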); details: BG1Luc4E2 ERE-luciferase antagonist mode, luminescence; activity change, negative = inhibition: at 70.3 µM (top of the series) unless noted
Method in brief: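 Luminescence from a 4×ERE-luciferase reporter in BG1-Luc-4E2 cells served as read-out. Cells, pre-cultured 5 days in stripped-serum phenol-red-free medium, were exposed to compound with 17beta-estradiol co-stimulation for 21.5 h at 37 C.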

[16] = qHTS assay to identify small molecule antagonists of the androgen receptor (AR) signaling pathway - cell viability counter screen (AID 743033; also: potency is read from the fitted curve at half-maximal effect; nearly all actives have a fitted effect of over 45% in size); details: AR-bla HEK293 viability, CellTiter-Glo luminescence, 16 h; activity change, negative = cytotoxicity: at 58.5 µM (top of the series) unless noted
Tags tell the direction and shape of the fitted curve or compound fluorescence and quenching.

O=C(O)c1cccc(N(Cc2cccnc2)c2ccc(OC(F)F)c(OC(F)F)c2)c1
inconclusive: Potency [1] 68.6 µM [cytotoxic, single point] | Potency [2] 68.6 µM [cytotoxic, single point] | Potency [3] 68.6 µM [cytotoxic, single point] | Potency [4] 54.9 µM [single point] | Potency [5] 6.16 µM | Potency [6] 54.5 µM [inhibitor, partial curve, poor fit] | Potency (Aromatase (Homo sapiens)) 30.6 µM [inhibitor, partial curve, poor fit]

Oc1cccc(Nc2ccccc2)c1
inactive: Potency [1] | Potency [7]
active: Potency [11] 25.4 µM
inconclusive: Potency [2] 71.5 µM [cytotoxic] | Potency [3] 71.5 µM [cytotoxic, single point] | Potency [8] 80.3 µM [inhibitor, single point] | Potency [9] 20.3 µM [fluorescent, full curve] | Potency [10] 22.8 µM [rising, single point] | activity change, negative = cytotoxicity [12] 5.86% [at 95 µM]

CC(C)CC(C)(O)C#CC(C)(O)CC(C)C (stereo unspecified)
inconclusive: Potency [1] 68.6 µM [cytotoxic] | Potency [2] 67.2 µM [cytotoxic] | Potency [3] 67.2 µM [cytotoxic, single point] | activation [13] 8.18% [phenotype inactive] | Potency [10] 0.0135 µM [cytotoxic, full curve, poor fit] | Potency (Aromatase (Homo sapiens)) 59.9 µM [inhibitor, partial curve] and 34.4 µM [inhibitor, partial curve, poor fit]

CC(C)(O)c1coc(S(=O)(=O)NC(=O)Nc2c3c(cc4c2CCC4)CCC3)c1
inconclusive: Potency [1] 61.1 µM [cytotoxic, partial curve, poor fit] | Potency [2] 54.5 µM [cytotoxic, partial curve, poor fit] | Potency [3] 27.3 µM [cytotoxic, partial curve, poor fit]
inactive: Potency [14]

COc1ccc(-c2coc3cc(O)ccc3c2=O)cc1
active: Potency [2] 30.6 µM
inconclusive: Potency [1] 61.1 µM [cytotoxic, single point] | Potency [3] 43.3 µM [cytotoxic, partial curve] | Potency [9] 21.9 µM [fluorescent, partial curve, poor fit] | Potency [15] 1.37 µM [rising, full curve]

CC(=O)OCC(=O)[C@@]1(O)[C@H](OC(C)=O)C[C@H]2[C@@H]3CCC4=CC(=O)C=C[C@]4(C)[C@@]3(F)[C@@H](O)C[C@@]21C
inconclusive: Potency [1] 13.3 µM [cytotoxic, partial curve] | Potency [2] 11.9 µM [cytotoxic, full curve] | Potency [3] 29.8 µM [cytotoxic, partial curve, poor fit] | Potency [9] 0.0379 µM [activator, full curve] | activation [11] 12.3% [phenotype inactive]

CCOC(=O)/C=C(C)/C=C/C=C(C)/C=C/c1c(C)cc(OC)c(C)c1C
active: Potency [1] 9.44 µM | Potency [2] 2.37 µM | Potency [3] 6.68 µM | Potency [15] 4.22 µM
inconclusive: Potency [9] 21.3 µM [fluorescent] | Potency [10] 19 µM [cytotoxic, partial curve, poor fit] | activation [11] -24.7% [phenotype inactive]

CCCCCCCCN(C)CCCCCCCC
inactive: Potency [4] | Potency [11]
inconclusive: Potency [1] 69.4 µM [cytotoxic, single point] | Potency [2] 69.4 µM [cytotoxic, single point] | Potency [3] 69.4 µM [cytotoxic, single point] | activation [5] 1.12% [at 79.1 µM]

O=C(Oc1ccccc1)c1ccccc1O
inactive and 61.1 µM (active): Potency [3]
inconclusive: Potency [1] 6.14 µM [rising, partial curve, poor fit] | Potency [2] 30.6 µM [cytotoxic, partial curve] | Potency [16] 61.6 µM [cytotoxic, partial curve, poor fit] | Potency [9] 7.56 µM [cytotoxic, partial curve, poor fit] | Potency [10] 5.35 µM [rising, full curve] | Potency (Aromatase (Homo sapiens)) 68.9 µM [inhibitor, single point] and 15.4 µM [inhibitor, full curve, poor fit]
